Experimental data published in the supplement of paper PMC10126150.
Values marked as one replicate rest on one cluster of the flow cell; about a third of the high ones do not repeat.

Tested on: ATP
Assay: switch fluorescence ratio, 500 uM ATP over buffer (Cy3 cluster intensity, sum of 5 cycles each) (fold (ratio)); higher = stronger signal-on switching upon ATP binding; sequences stand for … in TCGTCGGCAGCGTCAGATGTGTATAAGAGACAGTTTTTTTTTTTTTTTTTTTTTTTTT…TC
Conditions: aptamer strand: ATP DNA aptamer (quencher-CACCTGGGGGAGTATTGCGGAGGAAGG + anchor), 100 nM annealed; ATP concentration: 500 uM; one replicate
How it was run: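 Cy3-labelled switching-strand clusters on a modified Illumina MiSeq flow-cell were annealed to 100 nM quencher-labelled ATP aptamer and imaged first in selection buffer, then after 15 min with 500 uM ATP at 22 °C. NaOH stripping and re-annealing separated each of five buffer/ATP cycles, and clusters outside 100-1000 RFU were excluded. The fluorescence ratio sums target-cycle Cy3 intensity over buffer-cycle Cy3 intensity per cluster and averages it per switch-domain sequence.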
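Note: ATP exposure 15 min at 22 °C before imaging.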

Row | Sequence | switch fluorescence ratio
1 | GGGAGAAACT | 1.04
2 | TTTCCATCAT | 1
3 | ATCACGTGCC | 1.01
4 | CCCAAAAGGG | 0.991
5 | ATTGCTGGG | 1.03
6 | ATGAGGTGAA | 0.989
7 | CAGCGATGTA | 0.964
8 | CCAGACTAAG | 1.01
9 | CAGTCAAACA | 1.01
10 | TGTTAGTCAT | 0.981
11 | AACAGATGCG | 0.964
12 | CTGTCTGGAC | 1
13 | GACCAGCGGA | 1.01
14 | GCCTGACGGA | 1.17
15 | AGTCCGCCCG | 1.01
16 | TTATCGTCGT | 0.99
17 | CGACCGACCG | 1.08
18 | GTGGATAGTA | 0.986
19 | GGTAGTGAGA | 0.972
20 | ACGGAATTCC | 1.04
21 | TCTAAAAACA | 1.02
22 | TGACCATTAA | 1.02
23 | CATCTGTCCA | 1.06
24 | CGGTCAAAAG | 0.962
25 | CCAAGGTACG | 1.06
26 | TATTTAGCA | 1.03

Row | Sequence | switch fluorescence ratio
27 | GCAACGCCCG | 1.08
28 | TGCACCTGGT | 1.01
29 | TGAGCAGCTA | 1.01
30 | CCGGATTATT | 1.08
31 | TAGGGGCGAA | 0.969
32 | CGAAGTTCCA | 0.986
33 | AGTAGAGGAG | 0.95
34 | TGAGCAATCG | 2.73
35 | TAGGCGCATA | 1.07
36 | AGTGGAACCA | 0.997
37 | CAGGCGAATG | 0.974
38 | CAGACATGTG | 1.06
39 | CCTATAAGGC | 1.08
40 | CATATCAGGT | 0.97
41 | ACGAGGGCCT | 1.02
42 | ACATTTCAGA | 1
43 | AGTTCATGAC | 1.02
44 | ATTGTTTGAC | 1.05
45 | TGGCGAAGAT | 0.956
46 | CTATCCTAAG | 1.02
47 | GTCCAATAGC | 1.1
48 | GATCTCTGGG | 0.985
49 | AGTTCGGGCT | 0.978
50 | GCCCTGCCGC | 1.13
51 | TCGCCTCCAG | 1.28
52 | TACAAGGTGT | 1.27

Row | Sequence | switch fluorescence ratio
53 | GGTAGTAAAG | 0.971
54 | GCGTAGAGCA | 1.09
55 | TGAGTGGTTC | 0.985
56 | TCGTGCGCCA | 1.11
57 | ATTAGTTGTT | 1.02
58 | TGTAGACTGT | 1.02
59 | GAGGAGTCAC | 0.991
60 | AGCAGTCACC | 1.02
61 | CTTAGTTCAT | 1.01
62 | CTGCTCGACA | 1.05
63 | ATATTCGTGA | 1.01
64 | TTGACGCGGT | 1.34
65 | CGCGGCAGAC | 2.34
66 | TGACAACGCT | 1.27
67 | AGCGTCTTA | 1
68 | CATGTCGCGG | 1.05
69 | CCTTGACCAC | 1.1
70 | ACGAATCAGG | 1.46
71 | GTACGTAAGA | 1.37
72 | GTGCAAGGGC | 1.11
73 | GGACCACTGT | 1.04
74 | ACTGCTTAAA | 0.997
75 | ACATGGAATT | 0.977
76 | TCCCTTAAAC | 1.92
77 | AAGAGCTTTT | 1.12
78 | GGCGGGGT | 1

Row | Sequence | switch fluorescence ratio
79 | TCGCCCAGAG | 1.82
80 | CATAAGTGTG | 1.02
81 | ACATCCGAAG | 1.32
82 | GGGAACGCGC | 1.04
83 | GTAGGTAGCA | 1.02
84 | GAGAAGGCCA | 1
85 | GAAGCTAGAG | 1.34
86 | ATTTAGGATC | 0.996
87 | CGAGGCGGAT | 1.02
88 | CAAGGCGCCG | 0.981
89 | GCTGATCCGT | 1.09
90 | TACTTTTGCC | 1.1
91 | AGGGCTCGG | 0.985
92 | TATCGAGAAG | 0.997
93 | TACCATACG | 1.43
94 | GGTCAACAGA | 1.01
95 | GTCAGTTCGT | 1.02
96 | GGGACCTAAA | 0.998
97 | GCTACAAGTT | 0.959
98 | CAATAACTAA | 1.05
99 | CCCTAGGGCT | 1.03
100 | AATTCGCCGC | 1.12
101 | GAGCTTATAA | 1.12
102 | ACAGCACTGA | 1.39
103 | TCTTTCCAGC | 1.04
104 | TAAGTATATG | 0.995

Row | Sequence | switch fluorescence ratio
105 | AAAGTCACCT | 1.2
106 | GAAATATACT | 1.04
107 | ATTGTTTCCA | 1.01
108 | GAGATTTCTT | 1.02
109 | GCACAACCT | 1.7
110 | AAAGTGACTC | 0.967
111 | TTTGCCCACG | 1.01
112 | TAGGAGTACT | 1.02
113 | AGAACAAGTT | 0.972
114 | CGTCGATCTC | 1.12
115 | TGCACGGAGC | 1.09
116 | CGGAAATCCC | 1.08
117 | AGCGTCGCCT | 1.02
118 | TTCCACCTTG | 1.18
119 | ACTTGTCGAT | 1.01
120 | ATGTTTAGA | 0.964
121 | TACGACACTG | 1.25
122 | GAGAAGAAGA | 1.02
123 | CGCCCGGAGG | 1.01
124 | CTTTTAAAC | 0.987
125 | CCATTTGAAT | 0.994
126 | AACTGGCCCC | 1.01
127 | CTAATGCTAT | 0.999
128 | TGATCAACTT | 1.05
129 | CCACGTCCGC | 1.63
130 | CGTTCACTTA | 1.01

Row | Sequence | switch fluorescence ratio
131 | TCGGTATCG | 0.98
132 | TGGTATCTAA | 0.998
133 | TGATGCGGGG | 1
134 | ACTCTAGGGT | 1.14
135 | GCCGGACATA | 1.02
136 | TATTAGGCTT | 0.998
137 | GATCGACGGG | 1.02
138 | CGAGAGGTTA | 1.03
139 | GCTGGAGCGA | 1.45
140 | ATACTCCGG | 1.32
141 | TCCTCCGTTT | 4.75
142 | TCAGCAGGCC | 0.976
143 | GAGTTTATGA | 0.999
144 | AGTTCAATTT | 0.982
145 | TATCAGATAT | 1.04
146 | GATGCTTAGA | 0.947
147 | AACGACCGA | 1.21
148 | TAGGGAGATT | 0.989
149 | GCCTTGCCAG | 1.01
150 | AATGGAGTTG | 1.05
151 | ATATCTCAAC | 1.01
152 | CTAAGGTAGA | 1.01
153 | AGTCAGCCGG | 1.02
